Measurements reported in the supplement of paper PMC11417369.
This is one part of the list.

System: PF3D7_0420300 AP2 domain 1 (GST-tagged)
Experiment: gcPBM binding intensity (ln(normalized median fluorescence intensity)); higher = stronger DNA binding
Method in brief: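 GST-tagged P. falciparum DNA-binding domains produced in E. coli were incubated for 1 h on an Agilent 4 × 180k array of primer-extended double-stranded 36-bp intergenic genomic probes with negative controls. Binding intensity is the highest Masliner-normalised natural-log median intensity across replicate spots of either probe orientation, with bound protein detected by Alexa488 anti-GST antibody at 488 nm.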

| Sequence | gcPBM binding intensity (ln) |
| --- | --- |
| GAATGTCTAATTTTGATGCACACTTTTGTGCAATTA [CACACA_site2902] | 9.11 |
| CAAAAAATTCAACACACACACACACCGATAAATAAA [CACACA_site8330] | 10.2 |
| TTATATTATTCGTGTGTGCACGATATTTCATAATTG [GTGCAC_site9767] | 9.45 |
| TTGTCCCTATAAGGGGAACACACATAAATGAATATA [CACACA_site8250] | 9.08 |
| ATAATGTTTTATAATACACACATTATGTATATAAAT [CACACA_site4077] | 9.24 |
| AAAACTATTTGTAAAAGTACATAATAAATAAATAAA [XGTACX_site7922] | 9.28 |
| CGTATTTATAGAATTACACACCATATTGTAATTATT [CACACA_site7722] | 9.32 |
| GTGTTTTTATTATTTTGTACACATATATTTAATATT [XGTACX_site2109] | 9.79 |
| TTTTTTTTGTAATACGCATGCTAAAAATATTTATAA [TGCATGCA_site656] | 8.91 |
| ATTTAAATAAGATATACACACAAGTAGAAGACTATG [CACACA_site806] | 9.71 |
| TTTTCGATGTTGGTAGGAAGTTTGGTACACGTAGTA [TGCATGCA_negctrl_site145] | 9 |
| TTAAGAAATAACAATGCACACATTTAGGTCTTTTAT [CACACA_site3285] | 9.39 |
| ATAACTTGTATATATACACACACACCCTTTCTTTTT [CACACA_site8600] | 10.1 |
| TATATTATATTATACATACACACCCATATAATATGT [CACACA_site869] | 9.67 |
| CTTCAATATATTCTTACACACTTAAAAAAAAAAATA [CACACA_site4287] | 9.08 |
| TTAGATATGTGTAAGGGTACAAAATACTTTACATTT [XGTACX_site8204] | 9.25 |
| CTATTATTTTTAAATTGTACTATAACAAAATGTATA [XGTACX_site3916] | 8.89 |
| TTTATATTTATATAAATATAATATATATGAATTATA [XGTACX_negctrl_site466] | 8.72 |
| AAATAAATCTATAATACACACAAAAATATAAAATGC [CACACA_site7700] | 9.85 |

| Sequence | gcPBM binding intensity (ln) |
| --- | --- |
| ATATATATGTTTTATAGTACACACATAAATGGACAT [XGTACX_site4538] | 9.56 |
| GTTGAACATATATGCACACACATAAAATAAAAAAAA [CACACA_site2413] | 9.66 |
| TTGTGAAACATCAAGAAAAAGAAATAATAAAAAGAA [GTGCAC_negctrl_site38] | 9.26 |
| TTATATTAATATATATGTACATATATTTTTTTTATA [XGTACX_site6981] | 9.26 |
| TCTTTTTTTTTTTTTTTTTTTTTTTATTTATTCATA [CACACA_negctrl_site1827] | 9.26 |
| AAAAGGTATCCACATACGCACACCAAAAAAAAAAAT [CACACA_site347] | 9.46 |
| ATACAACAATGTGAATTATATATGGATGGAGAATGA [GTGCAC_negctrl_site148] | 9.43 |
| ACGTAAGCGAATAAAAGTACATATATTAAAAAAAAA [XGTACX_site4458] | 9.13 |
| TTCTTAAGGAACGAACGTACAGAATAAAAAGTAAAA [XGTACX_site4294] | 9.12 |
| CATTCAATTGAAAAATGTACAAAAATAAACATATGC [XGTACX_site1663] | 9.42 |
| TAAGTATACGCATACACACACACACCCAAAAAAAAA [CACACA_site425] | 9.99 |
| AATAGGAAGACTATTTTGTATTTGATTTTTTATTCC [GTGCAC_negctrl_site453] | 9.34 |
| TAAACATACCTATACACACACACACGCACACGCACA [CACACA_site6372] | 10.3 |
| GTTCCAGGCATTCGTGCGCACAAATAGAAACAATTA [GTGCAC_site9824] | 9.06 |
| TTTCTATATTGGCATACATGCAAGAACGAAAAGATT [TGCATGCA_site117] | 9.02 |
| TAAAAATTGCACAGAAGTACAGTATAAATATATATA [XGTACX_site3421] | 9.19 |
| ATAATATATGAGCAATGTACATATTTCTCATTGCAC [XGTACX_site2253] | 9.22 |
| ATAAAATAAATGAAAAATGTAAAATGAGAAAAAAAT [CACACA_negctrl_site1026] | 9.79 |
| TATATATATATATGGGTGCATTTTTTTGTCCATGTA [GTGCAC_site9868] | 9.25 |

| Sequence | gcPBM binding intensity (ln) |
| --- | --- |
| TATGCTATAATACTCTGTACTTACTAATTTAATAAT [XGTACX_site5926] | 9.31 |
| TACATATTTTTTATATGTACATATTTTTTATGTGTA [XGTACX_site442] | 9.14 |
| TAATAAACAAATTCCAAAATAAATTAAAAGGAAAAT [CACACA_negctrl_site1404] | 9.24 |
| AGGTATATATTACAAGTGCACTGTAAAATTAAAATT | 9.24 |
| TTTTATCTCATTCATCAAAATCACCGGAATCATATA [CACACA_negctrl_site357] | 8.99 |
| ATTTTATCATAATAAAGTACAAAGATGCAAATAATA [XGTACX_site2270] | 9.42 |
| ATTTATTTATATTTAGTGCAATACTATTTTTAAATA [GTGCAC_site9886] | 8.91 |
| GTTTGTATAGGTTCATGTACAAAAAAAAAAAAAAAA [XGTACX_site537] | 8.69 |
| TTTAAAACCCTAAAAAAAAAAAAAAAAAAAAAAAAA [CACACA_negctrl_site1212] | 8.45 |
| ATGCATAAAAGAAATACACACATAAATATGTAAATA [CACACA_site7087] | 9.74 |
| TTAAAACATATTTTGAATTAATATATTTTAATATTA [XGTACX_negctrl_site148] | 8.58 |
| TAGCGTACATTTCATTGTAATCATAAAAAATAAAGA [CACACA_negctrl_site447] | 9.05 |
| ATTCATATGTGACACACACACACACGCATAAAAAAA [CACACA_site7515] | 10.1 |
| ACAAAAATATATATATGTACATATATCATCATAATA [XGTACX_site5850] | 9.37 |
| TTTATTAGAACCGTACGTACATAGTTATTTTTTCAA [XGTACX_site8848] | 9.02 |
| ATAATGTTCCTATGATGTACTTATAATTATCATTTT [XGTACX_site4017] | 9.52 |
| TATTGTTCGTTTAAGGTGCTATTGTTTGCAAAATAT [GTGCAC_site9412] | 9.41 |
| ATTAAAATAATATAAACACACATATACTTTTTTCTA [CACACA_site565] | 9.42 |
